Results taken from the supplement of paper PMC11417369.
± gives the standard deviation of the averaged measurements. The list shows a part of the results.

Tested on: PfAP2-I AP2 domain 3 (GST-tagged)
Assay: gcPBM binding intensity (ln(normalized median fluorescence intensity)); higher = stronger DNA binding
Method in brief: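 Alexa488 anti-GST antibody, scanned at 488 nm, detected GST-tagged P. falciparum DNA-binding domains that had been expressed in E. coli and incubated for 1 h on an Agilent 4 × 180k array. The array carried primer-extended double-stranded 36-bp intergenic genomic probes and negative controls. Binding intensity is the highest Masliner-normalised natural-log median intensity across replicate spots of either orientation of each probe.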

| Sequence | gcPBM binding intensity (ln) |
| --- | --- |
| AAATCACAAAAAAAAAAAAAAATATATATATATATA [CACACA_negctrl_site10] | 9.41 ± 0.29 |
| AAATAGTAAGAGATGGTGCGTTTCCTTTTTTTTTTT [GTGCAC_site9663] | 9.56 ± 0.028 |
| TTTAAAAATATTTCACGTACGCATTTTAAAAAGTAT [XGTACX_site8026] | 8.09 ± 0.28 |
| TTTTTTTCATATATATGTACATAATTATATATGCAT [XGTACX_site3257] | 7.92 ± 0.47 |
| TTAATTATATGGTAAACAAATAAATGTGAAAGGAAA [XGTACX_negctrl_site389] | 7.96 ± 0.43 |
| CGTGGGAGCAGACACACACACACACCCATATATATA [CACACA_site334] | 8.24 ± 0.73 |
| TATTTATAAATATACGCACACATTAATATATATATA [CACACA_site3969] | 8.93 ± 0.21 |
| GTTGGTAGGCGGTACGGTACACGTAGTATTTTTCTT [XGTACX_site4213] | 7.62 ± 0.88 |
| ATATTATTTATTTTTAAATTATATTGATTATTTTTT [CACACA_negctrl_site451] | 7.18 ± 0.32 |
| AGTATGTAAATGTGCCATATATATATTAAATACATA [CACACA_negctrl_site14] | 8.53 ± 0.2 |
| TAGAAATATATTTATTGTACATTGTATATATTATAT [XGTACX_site7584] | 7.62 ± 0.43 |
| TTGAAGTGTACTATTTTATATATATATATACATTTT [CACACA_negctrl_site224] | 8.03 ± 0.26 |
| TCTTTTTTTTTTACTAGTACTTAAAAAAAAAATATG [XGTACX_site4395] | 7.87 ± 0.33 |
| ATTATGTGCCAATACACACACACATCTATATTTATA [CACACA_site6359] | 8.51 ± 0.5 |
| TTTTAATTTTTAAGACGTACTATCATTTGATAATAA [XGTACX_site3942] | 7.47 ± 0.36 |
| TACGATGTTTTAAAATGTACATAAAAGTCACATAAG [XGTACX_site3297] | 7.72 ± 0.38 |
| TATGATAAATATGGAGCACACACACCGAAACATACA [CACACA_site8031] | 8.28 ± 0.33 |
| AAGTGTTCTTGTTATACACACACATATATATATATA [CACACA_site8251] | 9.36 ± 0.48 |
| TAGCATGATTTGCCTTGTACACAACCGTTTTAATAA [XGTACX_site7911] | 7.89 ± 0.6 |
| TATATTATATATATATGTACATATTATTATATCTAA [XGTACX_site3835] | 7.75 ± 0.44 |
| TTTTGTATTTTTCACACACACATAAGTAAACAATAA [CACACA_site1899] | 8.18 ± 0.54 |
| TAAATGAAAATATGTACACACTTGAAAATTTTTATG [CACACA_site5599] | 7.84 ± 0.47 |

| Sequence | gcPBM binding intensity (ln) |
| --- | --- |
| ATACAATAATATAAATGTACAAATTATATCTTCATT [XGTACX_site8994] | 7.58 ± 0.35 |
| AAATTAAATATTATATTAATTCTTAAATTTTTTTTT [CACACA_negctrl_site439] | 7.01 ± 0.58 |
| AAACATATGGTATTTAAACACACAAAAAAGAAAGAA [CACACA_site8239] | 8.11 ± 0.65 |
| ATGTTGTGGATATATACACACATACATATTTATATA [CACACA_site6857] | 7.8 ± 0.57 |
| TACAAGAACAAAAAATGTACGAAATAATTACAAATA [XGTACX_site5824] | 7.63 ± 0.69 |
| AATCTTTTTAAATCTTGATTAATTTCGGGTATATAT [TGCATGCA_negctrl_site107] | 7.78 ± 0.81 |
| AAAAAAAAAAAAAAAACACACAAACATCAAATTACT [CACACA_site6950] | 8.73 ± 0.35 |
| AAATTTAAAAATAAAGAACACACATATGTAAAATAT [CACACA_site9252] | 7.91 ± 0.76 |
| AATTTCAATTTCTGTTGTACACTTTTTAATAGTAAA [XGTACX_site4085] | 8.13 ± 0.49 |
| TATATACTATATATATGTACACAAAATTATTTTGAA [XGTACX_site8232] | 7.91 ± 0.2 |
| ATATGTAGTGTTATTTGTTCATTGTTTTAATTTTTA [CACACA_negctrl_site1394] | 7.84 ± 0.61 |
| TAATTATATAAATACACACACATACACCCAAATAAA [CACACA_site5819] | 8.6 ± 0.13 |
| GAAAAAAAAATACATACACACAATATATTTATTTAT [CACACA_site3124] | 7.53 ± 0.45 |
| TATTATATATAATATTGTACATTAAAATATTAAAGA [XGTACX_site3698] | 7.78 ± 0.4 |
| ATATGTATTAAGTGTACACATATAATGGGTTTTCTT [CACACA_site5328] | 8.03 ± 0.57 |
| GGAACGTTCATATTTCCACACACAAAAAATAAATAT [CACACA_site9101] | 7.92 ± 0.61 |
| TTTATTTTAAAATATAGTACGCAAATAAAAATAAAT [XGTACX_site7783] | 8.34 ± 0.15 |
| TATAAATTTGTTCAATGTACATGTAAAGATATAATC [XGTACX_site371] | 8.04 ± 0.57 |
| TGAAGCAAAAACAAAACACACATATAAATAAATAAA [CACACA_site3925] | 7.89 ± 0.49 |
| TTATTTTTTATAAAATGTACATATATTTTAAATATA [XGTACX_site4026] | 7.93 ± 0.16 |
| ACCAATCCAAAAGAATGTACCCATGTTTTAAAATAT [XGTACX_site2907] | 7.93 ± 0.42 |
| TTCGTATGCATGAAATGTACATGATATTATTATAAA [XGTACX_site4542] | 7.87 ± 0.49 |
